Test results published in the supplement of paper PMC12217912.
This is one part of the list. Sequences were assembled here from the parent chain. Inactive controls read about 0.05.

B1: TEV protease; numbered along this chain (parent)
chain: MGESLFKGPRDYNPISSSICHLTNESDGHTTSLYGIGFGPFIITNKHLFRRNNGTLVVQSLHGVFKVKDTTTLQQHLVDGRDMIIIRMPKDFPPFPQKLKFREPQREERICLVTTNFQTKSMSSMVSDTSCTFPSGDGIFWKHWIQTKDGQCGSPLVSTRDGFIVGIHSASNFTNTNNYFTSVPKNFMELLTNQEAQQWVSGWRLNADSVLWGGHKVFMVKPEEPFQPVKEATQL

Variants of: B1
Assay: raw area under fraction-flipped curve 0-4 h after induction (AUC4h, not background-subtracted), DNA-recorder readout of cleavage of the substrate (dimensionless); higher = more cleavage of the substrate by the protease variant
Details: temperature: 34 °C; time window: 0-4 h after rhamnose induction
Experimental: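 In vivo DNA recorder in E. coli TOP10(DE3) ΔrhaA at 34 °C. Each TEVp single-site mutant (parent TEVp 0) is paired with a single-site variant of the 7-mer TEVs (canonical ENLYFQ|S). The substrate sits between flexible linkers in a Bxb1-sfGFP-TEVs-SsrA fusion, so cleavage stabilises Bxb1 and speeds flipping of a recombination array, read by NGS. The value is the raw area under the fraction-flipped curve over 0-4 h after rhamnose induction (AUC4h), with ≥20 reads per time point. It is not background-subtracted; inactive controls average about 0.047.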
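Further: Bxb1 expression induced with 0.2% (w/v) L-rhamnose at OD600 near 0.5, cultures sampled hourly, flipped fraction per protease–substrate barcode pair counted by paired-end Illumina sequencing.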

Row | Variant | area with substrate ENLAFQS | area with substrate ENLCFQS | area with substrate ENLDFQS | area with substrate ENLEFQS | area with substrate ENLFFQS | area with substrate ENLHFQS | area with substrate ENLIFQS | area with substrate ENLKFQS | area with substrate ENLMFQS | area with substrate ENLNFQS | area with substrate ENLPFQS | area with substrate ENLRFQS | area with substrate ENLSFQS | area with substrate ENLWFQS | area with substrate ENLTFQS | area with substrate ENLVFQS | area with substrate ENLGFQS | area with substrate ENLLFQS | area with substrate ENLQFQS
1 | P228Q | 0.0688 | 0.0753 | 0.06 | 0.0822 | 0.0822 | 0.078 | 0.0865 | 0.0841 | 0.0664 | 0.0718 | 0.057 | 0.0783 | 0.0517 | 0.053 |  |  |  |  | 
2 | N52D |  | 0.0688 | 0.0559 | 0.0755 | 0.0698 | 0.0779 | 0.0714 | 0.0636 | 0.0641 | 0.0803 | 0.0702 | 0.0496 | 0.0612 |  | 0.0528 | 0.0794 |  |  | 
3 | S209F | 0.0594 | 0.0809 | 0.0541 | 0.0594 | 0.112 | 0.0793 | 0.0973 | 0.0916 |  | 0.0592 | 0.0569 |  |  |  |  |  | 0.0533 | 0.074 | 0.0867
4 | V217D | 0.0687 |  | 0.0682 |  | 0.0666 | 0.0577 |  | 0.0568 |  | 0.0715 | 0.0652 |  | 0.066 | 0.0607 | 0.062 |  |  |  | 
5 | Q227S | 0.0305 |  | 0.0537 | 0.0611 | 0.0997 | 0.0768 | 0.08 | 0.0941 |  | 0.0539 | 0.0557 | 0.0737 | 0.0761 | 0.0736 | 0.0722 | 0.0947 |  |  | 
6 | K230F | 0.06 |  | 0.0604 | 0.0539 | 0.0842 | 0.0778 | 0.0836 | 0.0776 |  | 0.0756 | 0.0645 | 0.0669 | 0.0656 | 0.0695 |  |  | 0.0638 |  | 0.0701
7 | K230P | 0.0509 |  | 0.06 | 0.0614 | 0.0753 |  | 0.0872 | 0.0873 |  | 0.062 |  | 0.0782 | 0.0328 | 0.0779 | 0.0748 |  | 0.061 |  | 0.0712
8 | K230I | 0.0533 | 0.0897 | 0.0708 | 0.0663 | 0.0727 | 0.0693 |  | 0.0824 |  | 0.0775 | 0.0411 | 0.0808 |  |  |  |  | 0.115 | 0.082 | 0.0728
9 | K46I |  | 0.0516 | 0.0601 | 0.0568 |  | 0.0597 | 0.0656 | 0.0705 | 0.063 | 0.0633 | 0.0526 | 0.0624 | 0.0696 | 0.068 |  | 0.0573 |  | 0.0636 | 0.0675
10 | E223H | 0.0783 | 0.0958 | 0.0659 | 0.05 | 0.0651 | 0.0764 |  |  |  | 0.0558 |  | 0.0773 | 0.0759 |  |  | 0.089 | 0.0715 |  | 0.0778
11 | M219G | 0.0652 |  | 0.0639 | 0.067 | 0.0633 | 0.0599 |  | 0.0661 |  | 0.0605 |  |  | 0.056 |  |  | 0.0595 | 0.0879 | 0.0529 | 0.0465
12 | L211H | 0.0636 |  |  |  |  |  |  |  | 0.0694 | 0.0688 |  | 0.073 |  | 0.0616 |  |  |  |  | 
13 | T44H |  | 0.0339 | 0.0441 |  | 0.066 | 0.0439 | 0.0408 | 0.0742 | 0.0594 | 0.0513 | 0.0433 |  | 0.0527 | 0.0507 |  | 0.0645 |  | 0.0716 | 0.0615
14 | W212Q | 0.0576 | 0.0599 | 0.0795 |  | 0.0832 | 0.0635 |  | 0.0927 | 0.0042 | 0.0597 |  | 0.0727 | 0.0706 | 0.0693 |  |  |  | 0.0691 | 0.0773
